The list shows a part of the results.
Biological target: no compound (DMSO)
Experiment: log2 fold change of degron read counts, EGFP-low vs EGFP+ sorted cells; higher = lower degron-EGFP level without compound (poor expression or instability)
Settings: compound: DMSO control; 18 h
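Note: jurkat cells carrying a lentiviral library of mutant zinc finger degrons fused to EGFP plus mCherry, mCherry+ cells FACS sorted, degron abundance counted by next-generation sequencing.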

Sequence | log2 fold change of degron read counts
FDCDICGAEFTQKGNLLRHIKL | -1.76
FDCDICGAWFTQKGNLLRHIKL | 0.479
FYCPVCGATFTQKGNLLRHIKL | -0.243
FFCEQCGALFTQKGNLLRHIKL | -0.0261
FYCPICGRCFTQKGNLLRHIKL | -3.25
LYCPICGFHCTQKGNLLRHIKL | 0.751
FNCNQCGRIFTQKGNLLRHIKL | 0.26
FDCDICGATFTQKGNLLRHIKL | -1.38
FSCDQCGADFTQKGNLLRHIKL | -2.43
FDCNVCGAWFTQKGNLLRHIKL | 0.469
LRCPICGFWCTQKGNLLRHIKL | 2.24
LFCNQCGFTCTQKGNLLRHIKL | 0.993
FTCEICGAVFTQKGNLLRHIKL | -1.83
FYCPICGRIFTQKGNLLRHIKL | -0.586
FHCDVCGACFTQKGNLLRHIKL | -1.55
FDCEICGAWFTQKGNLLRHIKL | 0.354
FLCPICGAEFTQKGNLLRHIKL | -1.12
FWCPQCGASFTQKGNLLRHIKL | 0.173
FSCEICGRGFTQKGNLLRHIKL | -1.42
FNCNQCGAEFTQKGNLLRHIKL | -1.65
LYCNQCGFSCTQKGNLLRHIKL | 0.412
FVCNVCGATFTQKGNLLRHIKL | -0.456
FECSVCGHPFTQKGNLLRHIKL | -1.06
LACNQCGFSCTQKGNLLRHIKL | 0.168
FDCDVCGAIFTQKGNLLRHIKL | 0.235

Sequence | log2 fold change of degron read counts
FSCEVCGAHFTQKGNLLRHIKL | -0.886
LWCEICGFVCTQKGNLLRHIKL | 1.8
FWCNVCGAFFTQKGNLLRHIKL | 1.44
FTCPVCGATFTQKGNLLRHIKL | -0.571
FCCSVCGHVFTQKGNLLRHIKL | 0.31
FNCNQCGHLFTQKGNLLRHIKL | 0.742
FHCDICGAFFTQKGNLLRHIKL | -0.903
FNCSVCGHHFTQKGNLLRHIKL | 0.0739
FGCNQCGHSFTQKGNLLRHIKL | 0.291
FCCNICGAQFTQKGNLLRHIKL | -0.34
FGCEICGRHFTQKGNLLRHIKL | -0.669
FSCSVCGHFFTQKGNLLRHIKL | 0.833
FECDVCGANFTQKGNLLRHIKL | -1.19
FACPICGAMFTQKGNLLRHIKL | 0.167
FICDICGAGFTQKGNLLRHIKL | -1.63
FHCPICGHRFTQKGNLLRHIKL | -0.313
FECNQCGHWFTQKGNLLRHIKL | -0.0447
FACPVCGAFFTQKGNLLRHIKL | 0.783
LDCNQCGFCCTQKGNLLRHIKL | -0.765
FRCEVCGAFFTQKGNLLRHIKL | -0.188
FTCPICGRQFTQKGNLLRHIKL | -0.636
LQCEICGFPCTQKGNLLRHIKL | -0.022
FQCPQCGATFTQKGNLLRHIKL | -1.27
LSCPICGFNCTQKGNLLRHIKL | 0.947
FLCNQCGADFTQKGNLLRHIKL | -0.956

— the supplement of paper PMC12645437, “Orthogonal IMiD-Degron Pairs Induce Selective Protein Degradation in Cells” (ACS Chemical Biology, 2025)
